According to ChEMBL document CHEMBL4888484, “Replenishing the malaria drug discovery pipeline: Screening and hit evaluation of the MMV Hit Generation Library 1 (HGL1) against asexual blood stage Plasmodium falciparum ,using a nano luciferase reporter read-out” (2022):
In all, about 150,000 compounds went through this assay and about 540 (0.36%) showed an effect of 50% or more. Some of the results follow.

Each compound was assayed on Plasmodium falciparum (assay: Primary screen in NF54 nanoGlo assay, in single point, at 2uM, 72h; a lower Z score goes with more inhibition). Conditions: timepoint 72 hour.
Format: functional, Erythrocyte

| Compound | % Inhibition | Z score |
| --- | --- | --- |
| Cc1ccc(C)c(CC(=O)N2CCC([C@H](C)N3CCN(C)CC3)CC2)c1 | -5% | 0.61 |
| CC1CS(=O)(=O)CCN1CC(=O)N1C(C)CCCC1C (stereo unspecified) | -5% | 0.77 |
| CCO[C@@H](CC)C(=O)Nc1ncccc1Br | -13% | 1.5 |
| O=C(c1cscc1-c1ccccc1)N1CCCO[C@@H](CF)C1 | -6% | 0.76 |
| COc1ccc([C@@H]2CCCN2C(=O)Nc2nncs2)cc1OC | 1% | -0.13 |
| O=C(N[C@@H]1CCCNC1)c1cc(-c2ccco2)nc2c(Cl)cccc12 | 2% | -0.24 |
| Cc1cccc(NS(=O)(=O)c2ccc3c(c2)CC(C)(C)OC3)c1C | -7% | 0.78 |
| CCC=C(C)C(=O)NCCc1ccc(OC)cc1 | 10% | -1.39 |
| CC1(c2ccccc2)CCC(N2CCN3C(=O)C(=O)NCC3C2)C1 (stereo unspecified) | -12% | 2.29 |
| COc1c2ccc(C(=O)N3CCC(COc4cc(C)ncn4)CC3)cc2nn1C | -13% | 2.29 |
| CCOc1cc2cc(c1)C(=O)N(C)CC(=O)N[C@@H]1CN(C(=O)c3cccnc3)CC[C@@H]1OCc1cccc(c1)O2 | -11% | 2.21 |
| CC(=O)c1c[nH]c(C(=O)Nc2ccc3c(c2)NC(=O)[C@H](C)O3)c1 | -14% | 2.03 |
| CCCS(=O)(=O)N1CC(n2cc(C(=O)NCc3ccccc3)nn2)C1 | -3% | 0.59 |
| Cc1nc(C2(NC(=O)N3CCS(=O)(=O)CC3)CCCCCC2)no1 | 12% | -2.19 |
| Cc1cc(C(=O)N2CCC(F)(F)[C@@H](COCC3CC3)C2)[nH]n1 | -1% | 0.22 |
| Cc1ccc(Cn2cccc2C(=O)C(=O)Nc2cccc3ccccc23)cc1 | -4% | 0.34 |
| Cn1cccc1CN[C@H](c1ccccc1)C1(CO)CCC1 | 8% | -1.38 |
| COCCN1C[C@]2(CCCN(c3ccnc4ccc(C)cc34)C2)CCC1=O | -3% | 0.55 |
| CN(C1CCCCC1)S(=O)(=O)N1CCC[C@H](C(C)(C)C)CC1 | -12% | 1.6 |
| O=S(=O)(c1ccccc1)c1cnc2c(Br)c(-c3ccccc3)nn2c1-c1ccccc1 | 44% | -5.72 |
| Cc1ccc(C(=O)NC2CCN(CN3C[C@@H](c4ccccn4)CC3=O)CC2)o1 | -7% | 0.72 |

| Compound | % Inhibition | Z score |
| --- | --- | --- |
| Cc1cnn(C2CN(CC(=O)N3CCN(c4ncccn4)CC3)C2)c1 | 2% | -0.35 |
| C[C@@H](c1ccccc1)N(CC(=O)N1CCN(c2ccc(-c3ccc(Cl)cc3Cl)nn2)CC1)C(=O)c1cccc(F)c1 | 3% | -0.28 |
| Cc1ccccc1CC(=O)Nc1ccc2oc(C3CC3)nc2c1 | -2% | 0.17 |
| CC(=O)Nc1ccc(CNC(C)(C)c2ncc(C)s2)cc1 | -10% | 1.37 |
| C#CC[C@H](C)OC(=O)c1cnn(CC)c1 | -16% | 1.72 |
| CC1CCN(c2cc(-c3ccco3)c3c(c2C#N)CC(C)(C)OC3)CC1 | 5% | -0.81 |
| CC1CCN(CC(=O)Nc2sc3c(c2C#N)CCC3)CC1 | -3% | 0.56 |
| CC1(C)CCCN(C(=O)NCCCN2CCOCC2)CC1 | -9% | 1.17 |
| COc1ccccc1NC(=O)N1CCC[C@]2(C3=CCOCC3)COCC[C@@H]12 | 2% | -0.3 |
| Cc1[nH]ccc1C(=O)N1CC[C@@]2(CCCN(CC3CCC3)C2=O)C1 | -14% | 2.68 |
| O=C(Cn1cnc(C2CC2)cc1=O)N1CC[C@@H](c2ccccc2Cl)S(=O)(=O)CC1 | -8% | 1.32 |
| NC(=O)CN1CCOc2ccc(F)cc2C1 | 8% | -1.52 |
| CN1C(=O)c2cc3ccccc3n2C[C@@]1(C)C(=O)NCC(=O)N1CCCCC1 | -11% | 1.13 |
| COC(=O)c1cc(OCC(=O)Nc2ccc(C)c(F)c2)c2cc(C)ccc2n1 | -6% | 0.97 |
| O=C1[C@H]2CN(Cc3ccc(Cl)cc3)C[C@H]2C(=O)N1Cc1ccc2c(c1)OCO2 | -12% | 1.52 |
| c1csc([C@@H]2CN(c3ncnc4sccc34)CCO2)n1 | 5% | -0.74 |
| Cc1ncsc1CN1CCC[C@@](F)(C(=O)NCC2CC2)C1 | -28% | 2.51 |
| O=C(NC(c1ccccc1)c1ccccc1)c1cccc2ccccc12 | -10% | 1.21 |
| Cc1cc(-c2cc(S(=O)(=O)N3CC(N4CCCCC4)C3)c(C)s2)[nH]n1 | -1% | 0.17 |
| CN1CCO[C@@H](CCNS(=O)(=O)N2CCc3ccccc3C2)C1 | -9% | 1.43 |
| CC(=O)N1CCC2(CC1)C[C@@H](C(=O)O)N(C(=O)c1ccc(C)c3ccccc13)C2 | -18% | 2.05 |

| Compound | % Inhibition | Z score |
| --- | --- | --- |
| COCCN(Cc1ccsc1)Cc1cc2cc(C)ccc2n1C | -17% | 1.78 |
| Cc1nc2ccc(NC(=O)N(C)Cc3cccc(F)c3)cc2s1 | 11% | -1.48 |
| CN(Cc1csc(-c2ccccc2)n1)C[C@]1(O)CNCCOC1 | -5% | 0.83 |
| O=C(C1CC=CCC1c1nc(Cc2cccc(F)c2)no1)N1CCOCC1 (stereo unspecified) | -3% | 0.53 |
| O=c1nc(NC2CCN(Cc3ccccc3)CC2)cn[nH]1 | 3% | -0.4 |
| CN(C)S(=O)(=O)N1CC[C@@]2(CCCN(C3CCCCC3)C2=O)C1 | -1% | 0.19 |
| c1cc(OCC2CCCCC2)cc(-n2cncn2)c1 | -6% | 1.01 |
| CCCN(Cc1c(C)nn(-c2cccc(F)c2)c1N1CCN(CC)CC1)C(=O)NC1CCCCC1 | 5% | -0.63 |
| COCCN1CC[C@H](C(=O)Nc2ccccc2Cn2ccnc2C)C1 | -20% | 3.54 |
| CC1CCC(NC(=O)CN(CC(=O)NC2CCC(C)CC2)S(C)(=O)=O)CC1 (stereo unspecified) | 6% | -1.15 |
| O=C1N[C@H](Cc2c[nH]c3ccccc23)C(=O)N1c1cncc(Br)c1 | -8% | 1.44 |
| C=CCN(CC#Cc1ccccc1)C[C@H](O)CO | -15% | 1.32 |
| CCc1noc(C)c1CNC(=O)c1ccc(C2CC2)nc1O | -8% | 0.96 |
| Cc1cccc(NS(=O)(=O)c2ccc3c(c2)-c2oncc2CO3)c1 | -10% | 0.98 |
| Cc1ccc(C)c(NS(=O)(=O)c2ccc(-c3cc(C(F)(F)F)on3)o2)c1 | -13% | 2.22 |
| COC[C@H]1CCCCN1C(=O)c1ccnc(C2CCCC2)n1 | 7% | -1.03 |
| Cc1cccc(Cn2c(=O)c(C(=O)NCCN3CCOCC3)nn(-c3ccc(C(C)C)cc3)c2=O)c1 | -8% | 1.12 |
| COCc1ncc(C)n1CCNC(=O)CC1CCCC1 | 0% | 0 |
| CC(C)[C@@H](C)NC(=O)c1cc(N(C)C2CCCCC2)nc2ccccc12 | 7% | -1.14 |
| CCc1ccc(-c2c(-c3ccccc3)ncn2CCN2CCCC2=O)o1 | -7% | 1.09 |
| CN(Cc1cccnc1)c1nc(N)nc2ccc(C(=O)O)cc12 | -8% | 1.24 |

| Compound | % Inhibition | Z score |
| --- | --- | --- |
| CCN1CCCN(C(=O)c2ccc(-c3cc(C(C)=O)ccc3F)cc2)CC1 | -9% | 1.75 |
| c1cncc(CN2CC[C@H](c3nnc(-c4cccnc4)o3)C2)c1 | -9% | 1.57 |
| Cc1ccc(Br)cc1-c1noc([C@@H]2CN(C)CCO2)n1 | -12% | 2.26 |
| Cc1cc(C(=O)Nc2ccc(C)c(O[C@H]3CCOC3)c2)no1 | -3% | 0.27 |
| Cc1noc(C)c1S(=O)(=O)NCc1cccnc1-n1cccn1 | -6% | 0.76 |
| CN(C)c1ccc([C@@H](CNC(=O)C2CCC2)c2c[nH]c3ccccc23)cc1 | -5% | 0.69 |
| O=C(c1ccccn1)N1CCN(Cc2cccs2)[C@@H]2CS(=O)(=O)C[C@@H]21 | -8% | 1.68 |
| CC(C)(C)[C@]1(C)NC(=O)N(CCOCC2CC2)C1=O | -9% | 0.95 |
| Cc1nnc(-c2ccc3ccn(CC(=O)Nc4cccnc4)c3c2)o1 | 9% | -1.08 |
| C=CCNC(=O)CN(C[C@H](C)O)C1CCCCC1 | 2% | -0.22 |
| COc1cccc(C2C(c3ccccc3)CCN2C(=O)CCC(=O)O)c1 (stereo unspecified) | -8% | 1.45 |
| O=C(Nc1ccncc1)c1nnn(-c2ccccc2)n1 | -11% | 2.03 |
| CC(C)C(=O)N1CCCC(C(=O)N2CCC3C(CCCN3Cc3ccccc3)C2)C1 (stereo unspecified) | -1% | 0.27 |
| CCNC(=O)c1ccc(OC2CCN(C3CCCC3)CC2)c(OC)c1 | -19% | 1.88 |
| Cc1ccc(C)c(-c2cc(C(=O)N(CCC(=O)N3CCCCC3)CC(C)C)no2)c1 | -3% | 0.25 |
| CCOC(=O)N1CCC(NC(=O)c2cc(C(=O)Nc3ccc(OCC)cc3)ccc2CO)CC1 | -6% | 0.85 |
| C[C@H](Nc1cccc(S(=O)(=O)N2CCCC2)c1)C(=O)Nc1ccc(N2CCCCC2)cc1 | -6% | 0.57 |
| CC(O)CC1CCCN1C(=O)Nc1cccc2cccnc12 (stereo unspecified) | -16% | 2.04 |
| C=CCOC[C@@H](O)CN(Cc1c(-c2ccccc2)noc1N1CCc2ccccc2C1)CC(C)C | -8% | 1.06 |
| CC(C)c1cc(CNS(=O)(=O)c2cc(F)c(F)c(F)c2)on1 | -3% | 0.39 |
